Measured values reported in PubChem BioAssay (NCI).
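The compound was tested at five concentrations on cells cultured in 96-well plates, with a 48-hour exposure period. GI50 = concentration required for 50% inhibition of growth. TGI: total growth inhibition.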

Tested on: NCI-H322M lung
Assay: growth of human tumour cells (NCI), 48 h

Row | Compound | GI50 [µM] | TGI [µM]
1 | O=C(CN1CCN(CCCOc2c(-c3ccccc3)oc3ccccc3c2=O)CC1)Nc1ccc(Cl)cc1C(=O)c1ccccc1Cl | 26.9 | > 100
2 | CC(=O)[C@@]1(O)CC[C@H]2[C@@H]3C[C@H](C)C4=CC(=O)CC[C@]4(C)[C@H]3[C@@H](O)C[C@@]21C | – | > 100
3 | CC1=C2C[C@H]3[C@@H](CC[C@@H]4CC(NS(C)(=O)=O)CC[C@@]43C)[C@@H]2CC[C@@]2(C1)O[C@@H]1C[C@H](C)CN[C@H]1[C@H]2C (stereo partly drawn) | 15 | 29.2
4 | COc1ccc(C(=O)Cc2c(C(=O)c3ccccc3)c3ccccc3n2C(=O)c2ccccc2)cc1 | – | > 100
5 | CC1(C)N=C(N)N=C(N)N1c1ccc(OCCCCOc2ccc(S(=O)(=O)F)cc2)c(Cl)c1 | 0.356 | 23
6 | Cc1ccc(C)n1-n1c(Cc2ccccc2)n[nH]c1=O | – | > 100
7 | CC1(c2cccc3ccccc23)OC(=O)c2ccccc21 (stereo not drawn) | – | > 100
8 | COc1cc(/C=C(\C#N)C(=O)c2ccccc2)ccc1O | – | > 100
9 | c1ccc2[nH]c(-c3ccc(NN=Nc4ccncc4)cc3)nc2c1 | > 100 | > 100
10 | COc1ccc2c(=O)c3ccoc3n(CC=C(C)C)c2c1 | – | > 100
11 | CC(=O)OCC(OC(C)=O)C(OC(C)=O)C(OC(C)=O)C(C=NN(C(C)=O)S(=O)(=O)c1ccc(/C=C2\NC(=O)N(C)C2=O)cc1)OC(C)=O (stereo not drawn) | – | > 100
12 | COc1ccccc1CCN=C1NC(=O)/C(=C/c2ccc3ncccc3c2)S1 | 6.49 | > 20.8
13 | CCN=C(NNc1ccc([N+](=O)[O-])cc1)P(=O)(OC(C)C)OC(C)C | – | > 100
14 | CC(C)c1cc(CN(C)C)c(O)c(C(C)(C)C)c1 | – | > 100
15 | CSc1nc(Cl)c(Br)c(Sc2nc(N)nc3nc[nH]c23)n1 | – | 22
16 | COc1ccc(-n2nnnc2-c2c[nH]c3c(F)cc(F)cc23)cc1 | > 100 | > 100
17 | CC(C)(C)OC(=O)c1cnc(Cl)cn1 | – | 97
18 | N#CC(C(=O)CCC(=O)C(C#N)c1ccccc1)c1ccccc1 (stereo not drawn) | – | > 100
19 | CCn1c(CN2CCN(Cc3ccccc3)CC2)nc2cc(NC(=O)c3cccs3)ccc21 | 33.2 | > 100
20 | COC(=O)c1c2c(c(C)[n+]([O-])c1C)C(=O)C=C(NCc1ccc(F)c(Cl)c1)C2=O | 0.429 | 1.6
21 | CCCCCCCCCc1cc(-c2ccc(C=O)s2)sc1-c1ccc(C=O)s1 | – | > 100
22 | N#Cc1c(NN)nc(NN)c(C#N)c1-c1ccccc1 | – | > 100
23 | Nc1ncnc2c1nc(Cl)n2C1OC2COP(=O)(O)OC2C1O (stereo not drawn) | – | > 300
24 | CC(=O)[CH-]C(=O)c1ccccc1.CC(=O)[CH-]C(=O)c1ccccc1.[Eu+3].[OH-].[OH3+] | > 100 | > 100

Row | Compound | GI50 [µM] | TGI [µM]
25 | CC(=O)[CH-]C(=O)c1ccccc1.CC(=O)[CH-]C(=O)c1ccccc1.CC1(C)C2CCC1(C)C([O-])C2.CC1(C)C2CCC1(C)C([O-])C2.[Ti+4] | 36.6 | > 100
26 | [O-][n+]1onc2c1CCC(=N\O)/C2=N/Nc1ccccc1 | – | > 100
27 | O=C(O)CN1CCN2CCOCCOCCN(CC1)CCN(CC(=O)O)CC2 | – | > 100
28 | CC(=O)OC1COC(Nc2ccc(C(C)=O)cc2)C(OC(C)=O)C1OC(C)=O (stereo not drawn) | – | > 100
29 | CC(C)CC1C(=O)NCCC(NC(=O)C(N)Cc2ccc(O)cc2)C(=O)NC(Cc2ccccc2)C(=O)NC(Cc2ccccc2)NC1=O (stereo not drawn) | – | > 100
30 | COc1ccc(/C=C/C(=O)c2ccc(SC)cc2)cc1OC | 13.1 | 27
31 | c1cc(Sc2nc(Sc3ccncc3)nc(Sc3ccncc3)n2)ccn1 | – | > 100
32 | O=C1c2ccccc2C(=O)c2c(Nc3ccc4c5c(cccc35)C(=O)c3ccccc3-4)cccc21 | – | > 100
33 | CC(C)(C)N1C(C(=O)c2ccccc2)C1c1ccccc1 (stereo not drawn) | – | > 100
34 | CCCCc1c2c(nc3c1CCCC3O)CCCC2 (stereo not drawn) | – | > 100
35 | O=S1CCS(=O)CCS(=O)CC1 (stereo not drawn) | – | > 100
36 | Nc1c(Br)cc(Br)c2c1[nH]c(=O)c1ccccc12 | 12.3 | > 93.6
37 | COC(=O)c1sc2ncc3c(c2c1N)CCCCCC3 | – | > 100
38 | NC(=O)C(N)=O | – | > 100
39 | Ic1ccccc1-c1ccccc1 | > 100 | > 100
40 | CCN1CCN(c2ccc(Nc3ccnc4ccc5c(nnn5C)c34)cc2)CC1 | – | 30.5
41 | Nc1nc(N)c2c(n1)NC(=O)c1c(c3ccccc3n1Cc1ccc(Cl)cc1)C2 | – | 56.6
42 | O/C(=C\c1nc2ccccc2nc1/C=C(\O)c1ccc(Cl)cc1)c1ccccc1 | – | > 100
43 | COC(=O)Nc1nc2cc(OC)c(OC)cc2c(=O)[nH]1 | – | > 100
44 | Nc1nc(N)c(C2=CCNCC2)c(=O)[nH]1 | – | > 100
45 | OC1(c2ccccc2)CC2CCC(C1)N2CCCC1(c2ccc(F)cc2)OCCO1 (stereo not drawn) | – | > 100
46 | Cn1c(/C=C(\C#N)c2ccccc2)nc2c(N3CCOCC3)nc(Cl)nc21 | 1.63 | 3.37
47 | CNC(=O)c1n[nH]nc1Sc1c([N+](=O)[O-])ncn1C | – | > 100
48 | O=c1nc2n(-c3ccc(Cl)cc3)c3ccc([N+](=O)[O-])cc3cc-2c(=O)[nH]1 | 33 | 59.8

Row | Compound | GI50 [µM] | TGI [µM]
49 | Cc1c(C)c2c(c(N)c1C#N)C(=O)N(Nc1ccccc1)C2=O | – | 6.61
50 | O=C(NC(CS)C(=O)O)c1cccc2c(=O)c3ccccc3[nH]c12 (stereo not drawn) | – | > 100
51 | N#Cc1c(Cl)cccc1Oc1ccc(S(=O)(=O)/N=C(\NN)Nc2ccc(Cl)cc2)cc1 | – | > 100
52 | CCOc1ccc(-c2nonc2NC(=O)c2cccc(C)c2)cc1OCC | > 100 | > 100
53 | N#CN=C(N)NC(=O)/C=C/C=C/c1ccc(Cl)cc1 | – | > 100
54 | N#CCCCC[N+]12CN3CN(CN(C3)C1)C2 | – | > 100
55 | Cn1nc2ccc3nccc(N4CCN(CCO)CC4)c3c2n1 | – | > 100
56 | CC(C)c1ccc(C2C3=C(N=C4SCC(=O)N42)C(=O)c2ccccc23)cc1 (stereo not drawn) | – | > 100
57 | Cc1cc(S(N)(=O)=O)c(S/C(CC(C)C)=N\Nc2ccc([N+](=O)[O-])cc2)cc1Cl | 3.84 | 15.5
58 | Cc1nc(Nc2ccccc2Cl)sc1C(=O)CC(=O)C(=O)Nc1c(Cl)cccc1Cl | – | > 100
59 | COC(=O)N1CCc2c(nc(N(C)CCO)[nH]c2=O)C1 | – | > 100
60 | O=[N+]([O-])c1nccn1CC(O)CN1CC1 (stereo not drawn) | – | > 100
61 | CN(C)c1ccc(/C=C2\C[C@H]3[C@@H]4CCc5cc(OCCN6CCCC6)ccc5[C@H]4CC[C@]3(C)C2=O)cc1 | – | 5.86
62 | Nc1c2c(=O)[nH]c(=O)c2c(N)c2c(=O)c3ccccc3c(=O)c12 | – | 2.75
63 | Clc1ccc2c(c1)C1C(CO2)C(c2ccccc2)=NN1c1ccccc1 (stereo not drawn) | – | > 100
64 | Oc1ccccc1C=NCc1ccco1 | – | > 100
65 | CCC1(c2c(F)c(F)c(N)c(F)c2F)CCC(=O)NC1=O (stereo not drawn) | – | > 100
66 | CC(=O)OCC1OC(n2c(-c3ccccc3)c(C(C)=O)c(-c3ccc(Cl)cc3)c(C#N)c2=S)C(OC(C)=O)C(OC(C)=O)C1OC(C)=O (stereo not drawn) | – | > 100
67 | CCCc1cc2c(=O)c(C(=O)OC)c[nH]c2cc1N(CC)CC | 68.5 | > 100
68 | NC(N)=N/N=C\c1cccc(OCc2ccccc2)c1 | 9.85 | 23.8
69 | CN(C)c1ccc([O][Bi]([Cl])[Cl])cc1 | > 100 | > 100
70 | CC1(CO)OC(n2cc(C(=O)NC(=O)OCc3ccccc3)c(=O)[nH]c2=O)CC1O (stereo not drawn) | – | > 100
71 | C#CCC(Cc1cnc2nc(N)nc(N)c2n1)c1ccc(C(=O)N[C@@H](CCC(=O)O)C(=O)O)cc1 (stereo partly drawn) | > 37.2 | > 100
72 | CC(C)(C)c1cc(-c2cc(C(C)(C)C)n(-c3ccccc3)n2)nn1-c1ccccc1 | – | > 100
